Source: PubChem BioAssay AID588855 (National Center for Advancing Translational Sciences (NCATS), 2011)
Screen size: about 410,000 compounds; about 5,000 (1.2%) were called active. The inconclusive results got no clear call from the source; some entries with a clear call stand among them for comparison. The call rests on the fitted dose curve; in most records, active means well fitted inhibition curve with a large enough effect; inconclusive means small, poorly fitted or top-dose-only effect; inactive means no such curve, though single readings can be large or run the other way. Potencies of inconclusive entries are doubtful fits and often do not repeat.
Potency means the concentration at half of the fitted maximal effect; tags describe the fitted curve by direction and shape.

Assay: qHTS for Inhibitors of TGF-b; further: nearly all actives have a fitted effect of over 65% in size
Details: HepG2 CAGA-GFP TGF-b/SMAD3 reporter, GFP fluorescence, 18 h, TGF-beta stimulated, 500 pg/mL final; series mostly up to 46.1 µM
Summary of the method: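 GFP signal (ex488/em500-530) from TGF-beta-stimulated HEPG2 CAGA-GFP cells, 500 pg/mL final, 18 h at 37 degrees C in DMEM plus 1% FBS, normalized to unstimulated and DMSO-stimulated controls.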
For COc1cc(NC(=O)c2cc(C)on2)cc(C(=O)Nc2cccc(C(F)(F)F)c2)c1, the Potency was inconclusive: 35.5 µM [inhibitor, single point].
For O=C1SCC(c2ccccc2)=NN1Cc1ccccc1, the Potency was “inactive”.
For CCCSc1nc(-n2ncc(C#N)c2N)c2c3c(sc2n1)CCC(C)C3 (configuration not stated), the Potency was inconclusive: 35.5 µM [inhibitor, partial curve, poor fit].
In the case of COCCNc1nc(-c2cc(-c3ccccc3)on2)cc(C(C)C)n1, the Potency is reported as inconclusive: 0.126 µM [inhibitor, full curve, poor fit].
In the case of CC(NC(=O)C1CCCN1S(=O)(=O)c1ccccc1)c1ccccc1 (configuration not stated), the Potency is reported as inconclusive: 2.82 µM [inhibitor, full curve].
For CCN(CC)CCn1c(=N)n(CCOc2ccccc2Cl)c2ccccc21, the Potency was inconclusive: 35.5 µM [inhibitor, single point].
In the case of COc1ccc(C2=C(C)C(=O)N(Cc3ccc(C(=O)Nc4ccc(F)cc4C)cc3)S2(=O)=O)cc1, the Potency is reported as inconclusive: 7.94 µM [inhibitor, partial curve].
In the case of Cc1ccc(C2(SCC(N)C(=O)O)c3ccccc3-c3ccccc32)cc1 (configuration not stated), the Potency is reported as “inactive”.
For Cc1cccc(-c2nc(CS(=O)CC(=O)NCc3ccc(Cl)cc3)c(C)o2)c1 (configuration not stated), the Potency was inconclusive: 2.51 µM [inhibitor, full curve].
With NC(=O)c1cc(S(=O)(=O)N2CCN(c3ccc([N+](=O)[O-])cc3)CC2)cs1 the Potency was inconclusive: 25.1 µM [inhibitor, single point].
With Cc1ccc(S(=O)(=O)N2CCN(C(=O)CN3CCCSc4ccccc43)CC2)cc1 the Potency was inconclusive: 17.8 µM [inhibitor, single point].
In the case of C=CC[C@@H](Cc1ccc(F)cc1)C(=O)OC[C@H]1CCCN1C(=O)[C@H](CC=C)CC(=O)N(CCO)Cc1ccccc1, the Potency is reported as inconclusive: 17.8 µM [inhibitor, single point].
With CC1=NN(c2nc(-c3ccc(F)cc3)cs2)C(=O)C1 the Potency was inconclusive: 0.112 µM [inhibitor, full curve, poor fit].
For O=C(CCC1CCCCC1)NNC(=O)NC12CC3CC(CC(C3)C1)C2, the Potency was inconclusive: 15.8 µM [inhibitor, single point].
In the case of COc1ccc(OC)c(NC(=O)Cn2ncc3c2-c2ccccc2OC3)c1, the Potency is reported as inconclusive: 1.12 µM [inhibitor, full curve, poor fit].
With O=C(NCCC1=CCCCC1)C1CCN(C(=O)N2CCOc3ccccc32)CC1 the Potency was inconclusive: 11.2 µM [inhibitor, single point].
For COc1ccc(-c2c[n+]3c4n2CCCCC4=C(c2ccc(Br)cc2)C3)cc1, the Potency was inconclusive: 35.5 µM [inhibitor, single point].
With Cc1cccc2c(C(=O)N3CCN(c4ccccn4)CC3)cc(-c3cccc(Br)c3)nc12 the Potency was inconclusive: 35.5 µM [inhibitor, partial curve, poor fit].
With Cc1cccc(C)c1NC(=O)CCCSc1nnc(-c2ccc(F)cc2)n1-c1ccccc1 the Potency was active: 7.94 µM.
For C[C@H]1CN=C2N(CCNC(=O)CCC3CCCCC3)[C@H](Cc3ccc(O)cc3)CN21, the Potency was “inactive”.
In the case of O=C(N/N=C/c1cccc2ccccc12)c1cccc(F)c1, the Potency is reported as “inactive”.
With Cc1c(Cl)cccc1NC(=O)CSc1nc(=O)[nH]c2c1CCCC2 the Potency was inconclusive: 35.5 µM [inhibitor, single point].
For CNC(=S)NNC(=O)c1ccccc1Br, the Potency was “inactive”.
In the case of N#CC1=C(N)S[C@@H](C(=O)c2ccc(F)cc2)[C@@H]1c1cccs1, the Potency is reported as inconclusive: 35.5 µM [inhibitor, single point].
In the case of NC(=O)C1CC(=O)N(Cc2ccc3c(c2)OCO3)C(=Nc2ccccc2)S1 (configuration not stated), the Potency is reported as inconclusive: 14.1 µM [inhibitor, single point].
For CC1=C(C(=O)OCC2CCCCC2)C(c2ccccc2F)NC(=O)N1 (configuration not stated), the Potency was inconclusive: 8.91 µM [inhibitor, partial curve, poor fit].
With CCCNC(=O)C1(C)CCCN(C(=O)c2sccc2C)C1 (configuration not stated) the Potency was “inactive”.
For CCc1nc2c(OCc3ccc(C(F)(F)F)cc3)cccn2c1N(C)C(C)=O, the Potency was “inactive”.
In the case of CCn1cc(C(=O)NCCCN2CC(C)CC(C)C2)c(=O)c2cc(S(=O)(=O)N(C)C3CCCCC3)ccc21 (configuration not stated), the Potency is reported as inconclusive: 5.01 µM [inhibitor, single point].
With CC(=O)c1ccc(OCc2cc(C(=O)N(C)C(C)c3ccon3)no2)cc1 (configuration not stated) the Potency was “inactive”.
With N#C/C(=C\c1ccc(OCc2ccc(F)cc2)cc1)C(=O)Nc1cccc(C(=O)O)c1 the Potency was “inactive”.
With COc1cc2nc(N3CCN(c4cc(C)ccc4C)CC3)nc(N)c2cc1OC the Potency was inconclusive: 7.94 µM [inhibitor, partial curve, poor fit].
In the case of CC(=O)C1=C(C)Nc2ncnn2C1c1ccc(C)cc1 (configuration not stated), the Potency is reported as “inactive”.
With CCN(Cc1ccccc1)C(=O)CN1C(=S)NC(C)(C)CC1C (configuration not stated) the Potency was inconclusive: 3.55 µM [inhibitor, partial curve, poor fit].
With CCOC(=O)C1CCCN(c2ncnc3c2oc2ccccc23)C1 (configuration not stated) the Potency was “inactive”.
In the case of NC1=NC[C@H](Cc2ccc(O)cc2)N1CCc1cc(C(F)(F)F)cc(C(F)(F)F)c1, the Potency is reported as active: 1.12 µM.
In the case of Cc1[nH][nH]c(=O)c1C(c1ccccc1[N+](=O)[O-])C(C#N)C#N (configuration not stated), the Potency is reported as “inactive”.
With COc1ccc(CCCC(=O)N/N=C/c2cccc(OC)c2O)cc1C the Potency was inconclusive: 14.1 µM [inhibitor, partial curve, poor fit].
For COc1ccc(/C=N/Nc2ncnc3c2[nH]c2ccccc23)c(OC)c1OC, the Potency was inconclusive: 0.501 µM [inhibitor, full curve, poor fit].
For CCOc1ccc(S(=O)(=O)N2CCC(C(=O)Nc3ccc(C)c(S(=O)(=O)N4CCOCC4)c3)CC2)cc1, the Potency was inconclusive: 11.2 µM [inhibitor, partial curve, poor fit].
For O=C(COC(=O)/C=C/c1cccc(Br)c1)NCc1ccco1, the Potency was inconclusive: 14.1 µM [inhibitor, single point].
For COc1ccc(OC)c(S(=O)(=O)N2CCc3ccccc32)c1, the Potency was “inactive”.
With COc1ccc(-c2nc3ccc(C)cc3c(=O)o2)cc1OC the Potency was “inactive”.
With Cc1ccc(NC(=O)c2ccc(OC(=O)C(C)Oc3ccc(Cl)cc3C)cc2)cc1 (configuration not stated) the Potency was inconclusive: 6.31 µM [inhibitor, single point].
For Cc1ccc(-c2n[nH]c3c2C(c2ccccc2Cl)N(c2ccc(C(=O)O)cc2)C3=O)cc1 (configuration not stated), the Potency was inconclusive: 35.5 µM [inhibitor, single point].
With CCCOC(=O)C1=C(C)CS[C@@H]2[C@H](NC(=O)COc3ccccc3)C(=O)N12 the Potency was “inactive”.
In the case of CCOC(=O)c1c(NC(=O)C2CC(Cl)=CCC2C(=O)O)sc2c1CCCCC2 (configuration not stated), the Potency is reported as inconclusive: 35.5 µM [inhibitor, single point].
For NS(=O)(=O)c1cccc(NC(=O)Nc2ccc(Cl)cc2)c1, the Potency was “inactive”.
For CCc1cccc(C)c1NC(=O)CCCN1C(=O)CN(C)C1=O, the Potency was inconclusive: 35.5 µM [inhibitor, single point].
With CCc1ccccc1NC(=O)Cn1c(=O)n(Cc2ccccc2)c(=O)c2c(C)c(C(=O)N(C)C)sc21 the Potency was inconclusive: 3.16 µM [inhibitor, single point].
For O=C(Nc1ccccc1)c1ccc(CSc2ccccn2)cc1, the Potency was “inactive”.
With O=C(c1cccc(N2C(=O)C3C4C=CC(C4)C3C2=O)c1)N1CCN(c2ccccc2)CC1 (configuration not stated) the Potency was “inactive”.
In the case of CCOc1ccc(NC(=O)Cn2c(=O)cc(C)c3c(C)nn(C)c32)cc1, the Potency is reported as “inactive”.
In the case of Cc1csc2nc(-c3cccc(NS(C)(=O)=O)c3)cn12, the Potency is reported as “inactive”.
In the case of Cc1ccc(S(=O)(=O)NC(=O)COc2ccc([N+](=O)[O-])cc2)cc1, the Potency is reported as inconclusive: 5.01 µM [inhibitor, single point].
For CN(c1ccccc1)S(=O)(=O)c1ccc(C(=O)Nc2nccs2)cc1, the Potency was “inactive”.
In the case of CCCc1cc2c(=O)c(-c3cscn3)c(C(=O)OCC)oc2cc1O, the Potency is reported as “inactive”.
With CC1CCN(S(=O)(=O)c2cc(C(=O)NCc3ccc(N(C)C)cc3)n(C)c2)CC1 the Potency was “inactive”.
In the case of CCOC(=O)CCCCCC(=O)Nc1ccc2c(c1)CC(=O)N([C@H](C)CO)C[C@H](C)[C@H](CN(C)S(=O)(=O)c1ccc(OC)cc1)O2, the Potency is reported as inconclusive: 0.251 µM [inhibitor, full curve, poor fit].
For C/C(=N\Nc1nc2ccccc2[nH]1)c1ccc(Cl)s1, the Potency was inconclusive: 17.8 µM [inhibitor, single point].
For COc1cc(NS(=O)(=O)c2ccc(N/C=C(\C#N)c3nc4cc(Cl)ccc4o3)cc2)nc(OC)n1, the Potency was “inactive”.
With O=C(Nc1nc2ccccc2[nH]1)c1ccccc1OC(F)F the Potency was inconclusive: 1.41 µM [inhibitor, partial curve, poor fit].
For CC(=O)Nc1ccc(Nc2c3ccccc3nc3ccccc23)cc1, the Potency was inconclusive: 12.6 µM [inhibitor, partial curve, poor fit].
With O=C(COC(=O)CCC(=O)c1ccc(F)cc1)Nc1ccc(Cl)cn1 the Potency was inconclusive: 0.112 µM [inhibitor, full curve, poor fit].
In the case of CCN(CC)S(=O)(=O)c1ccc(Cl)c(C(=O)N2CCc3ccccc32)c1, the Potency is reported as inconclusive: 11.2 µM [inhibitor, partial curve, poor fit].
With COC1OC2COC(c3ccccc3)OC2C(=O)C1NC(=O)c1ccccc1 (configuration not stated) the Potency was inconclusive: 5.62 µM [inhibitor, single point].
In the case of Cc1ccc(Sc2ncccc2C(=O)NCc2cc([N+](=O)[O-])ccc2O)cc1C, the Potency is reported as inconclusive: 35.5 µM [inhibitor, single point].
